Test results from the supplement of paper PMC3656093.
± gives the standard deviation of the averaged measurements. In all, about 1,900 compounds were measured (“CD40L-induced NF-kB luciferase activity, plate-corrected, relative to DMSO (0) and IKK inhibitor VII (-100) controls”: median about 0.032, lowest 2% from about -26 on). The list shows a part of the results.

The compounds below were run on BL2-NFkB-Luc (assay: CD40L-induced NF-kB luciferase activity, plate-corrected, relative to DMSO (0) and IKK inhibitor VII (-100) controls (% normalized activity); higher = more NF-kB reporter activity (less inhibition)). Settings: 9.4 µM; stimulus: tCD40L 64 ng/ml; 4.5 h.
Experimental: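 BL2 B cells with a stable NF-kB response-element luciferase reporter (BL2-NFkB-Luc), 384-well. Cells were pre-incubated with compound at 9.4 uM for 1 h at 37 C, then stimulated with 64 ng/ml trimerized CD40L for 4.5 h; luciferase was read with Steady-Glo. Signal was normalised per plate in Genedata (median DMSO neutral control = 0, median IKK inhibitor VII at 50 uM = -100) with Assay Median plate-pattern correction; duplicate plates.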

Structure (SMILES) | CD40L-induced NF-kB luciferase activity
CC1(C)CC(=O)C(C2(O)C(=O)Nc3ccccc32)CO1 (stereo not given) | 0.393 ± 0.46
COc1c2c(nc3occc13)C(CC=C(C)C)(OC)C(O)CC2 (stereo not given) | 2.58 ± 7.2
CC1(C)CC(CC(=O)O)(c2ccc(Cl)cc2)CCO1 (stereo not given) | 5.5 ± 0.88
CCCCNc1cc(C(=O)O)cc(S(N)(=O)=O)c1Oc1ccccc1 | -3.37 ± 1.3
Cc1cc(OC(C(=O)O)c2ccccc2)c2c(C)c(Cc3ccccc3)c(=O)oc2c1 (stereo not given) | 1.5 ± 0.14
C[N+]12CCCCC1C(COC(=O)c1ccc3c(c1)OCO3)CCC2 (stereo not given) | -2.37 ± 3.9
CC(=O)N1CC2(C)CN(C(C)=O)CC(C)(C1)C2 | -4.1 ± 4
O=c1ccn([C@@H]2O[C@H](CO)[C@@H](O)[C@H]2O)c(=O)[nH]1 | -6.55 ± 1.5
CCCCCC(O)c1cccc(OCc2ccc3ccccc3n2)c1 (stereo not given) | -8.19 ± 8.3
COc1ccc(C2CC(c3ccc([N+](=O)[O-])cc3)=NN2C(=O)c2ccccc2)cc1OC (stereo not given) | -2.67 ± 1.9
Cc1cc(O)c(C(C)C)cc1C1(c2cc(C(C)C)c(O)cc2C)OC(=O)c2ccccc21 | -36.1 ± 2.9
Cc1ccc(C(=O)COC(=O)c2cccc(N3C(=O)c4c(C)nc5ccccc5c4C3=O)c2)cc1C | 2.73 ± 3.2
CC1(C#CC[N+]2(C)CCCCC2)CCC2C(O1)c1ccccc1OC2(C)C (stereo not given) | -4.46 ± 3
NC(=O)OCC(COC(N)=O)c1ccccc1 | 2.1 ± 3.7
Cc1c(OCC(=O)NC(Cc2c[nH]c3ccc(O)cc23)C(=O)O)ccc2c3c(c(=O)oc12)CCC3 (stereo not given) | 2.12 ± 6.2
Cc1ccnc(NS(=O)(=O)c2ccc(N)cc2)n1 | 1.17 ± 1.4
CC(=O)NC(CC(C)C)C(=O)NC(Cc1ccccc1)C(N)=O (stereo not given) | 0.423 ± 0.34
Cc1cccc(OCC(=O)Nc2ccc(C(=O)NCC(C)C)cc2)c1 | -7.06 ± 0.13
COc1ccc(C(=O)CCN2CCc3cc(OC)c(OC)cc3C2)cc1 | -8.3 ± 0.46
COc1cc(CC(=O)NCCc2ccc(S(N)(=O)=O)cc2)cc(OC)c1OC | -2.35 ± 3.9
Cc1cc(OC(=O)CNC(=O)OC(C)(C)C)c2c(C)cc(=O)oc2c1 | 7.29 ± 0.78
O=C(NCCN1CCOCC1)c1ccc(Cl)cc1 | -15.2 ± 24
Cc1cccc2c(=O)n3c(nc12)CCCCC3 | 5.05 ± 2.7
CC(=O)CCCCn1c(=O)c2c(ncn2C)n(C)c1=O | -7.18 ± 11

Structure (SMILES) | CD40L-induced NF-kB luciferase activity
O=C1CCCN1CCCn1cnc2c([nH]c3ccc(F)cc32)c1=O | 3.33 ± 4.4
O=C(CCCN1C(=O)/C(=C\c2cccs2)SC1=S)Nc1ccccn1 | -2.54 ± 1.1
O=C(O)CCn1cnc2ccccc2c1=O | 1.38 ± 2.2
CC(=O)N(CCC1(c2ccc(C)cc2)CCOC(C(C)C)C1)Cc1ccco1 (stereo not given) | 5.98 ± 0.67
O=C(Oc1ccccc1)Oc1ccc2c(c1)oc(=O)c1ccccc12 | 15.2 ± 4
Cc1nc(N[C@@H](Cc2c[nH]c3ccccc23)C(=O)O)c2oc3ccccc3c2n1 | 4.71 ± 0.71
CCOC(=O)N1CCc2[nH]c3ccc(C)cc3c2C1 | -8.34 ± 0.66
Oc1ccc(Oc2ncc(Cl)cc2Cl)cc1 | -7.9 ± 14
CCCCCC(=O)O[C@]1(C(C)=O)CC[C@H]2[C@@H]3CCC4=CC(=O)CC[C@]4(C)[C@H]3CC[C@@]21C | -8.91 ± 0.8
O=c1c2[nH]c3ccccc3c2ncn1CCC1=CCCCC1 | -1.06 ± 0.11
Cc1ccccc1NC(=O)NCCc1c[nH]c2ccccc12 | -1.3 ± 2.4
CC(=O)OCC(=O)[C@@]1(O)[C@H](C)C[C@H]2[C@@H]3CCC4=CC(=O)C=C[C@]4(C)[C@@]3(F)[C@@H](O)C[C@@]21C | -27.6 ± 1
Cn1cnc2c1c(=O)n(CC(O)CO)c(=O)n2C (stereo not given) | 0.304 ± 4.1
CC1(C)OC2OC(C(=O)NN=Cc3ccccc3F)C3OC(C)(C)OC3C2O1 (stereo not given) | -1.17 ± 0.32
CCC12CN3CC(CC)(CN(C1)C31C(=O)N(C)c3ccc(C)cc31)C2=O (stereo not given) | -6 ± 8.1
COc1cc2c(cc1OC)C(c1ccccc1)=NCC2 | 0.447 ± 0.87
CCOCCn1c(C(C)O)nc2ccccc21 (stereo not given) | 1.75 ± 7
Cc1occc(=O)c1O | -3.22 ± 1.7
C#C[C@]1(O)CC[C@H]2[C@@H]3CCc4cc(O)ccc4[C@H]3CC[C@@]21C | -7.46 ± 6.8
O=C(O)c1ccc(OCCn2ccnc2)cc1 | 2.76 ± 1.1
Cc1ccc(S(=O)(=O)Oc2ccccc2C=NN=C(N)N)cc1 | -1.88 ± 1.6
CC(C(=O)O)c1cccc(C(=O)c2ccccc2)c1 (stereo not given) | 3.92 ± 1.4
Cc1oc2cc(O)cc(O)c2c(=O)c1-c1ccc2c(c1)OCCCO2 | 22.9 ± 3
COc1ccc(C(=O)NCCC2=CCCCC2)cc1[N+](=O)[O-] | 8.23 ± 1.4

Structure (SMILES) | CD40L-induced NF-kB luciferase activity
COc1cc(SC)ccc1C(=O)NC(C)C | 0.373 ± 2.3
CCOC(=O)c1ncn2c1CN(C)C(=O)c1cc(F)ccc1-2 | -5.59 ± 1.8
CC(=O)N1CCN2C(=O)C1CCCC(=O)c1cc(C(C)C)ccc12 (stereo not given) | 4.18 ± 2.8
CCCC1O[C@@H]2C[C@H]3[C@@H]4CCC5=CC(=O)C=C[C@]5(C)[C@H]4[C@@H](O)C[C@]3(C)[C@]2(C(=O)CO)O1 (stereo not given in full) | -26 ± 0.65
CC1(C)Cc2nc3oc4c(NCc5ccccc5)ncnc4c3cc2CO1 | 2 ± 2.6
O=C(CNC(=O)OCc1ccccc1)Oc1cc2oc(=O)cc(-c3ccccc3)c2cc1Cl | -6.69 ± 1.5
Cc1ccccc1NC(=O)c1c(C)cc(=O)oc1C | -17.1 ± 22
Cc1ccc([N+](=O)[O-])cc1NC1OC(CO)C(O)C1O (stereo not given) | -9.75 ± 8.3
Cc1cc(NS(=O)(=O)c2ccc(N)cc2)no1 | 0.679 ± 6.3
COc1cc(NC(=O)N[C@@H](Cc2ccccc2)C(=O)O)cc(OC)c1 | 0.704 ± 4.7
CCNC(=O)c1sc2cc(C)ccc2c1Cl | 58.4 ± 4.3
NS(=O)(=O)c1cc2c(cc1Cl)NC(CSCc1ccccc1)=NS2(=O)=O | 0.586 ± 0.24
Cn1c2ccc(CC(=O)O)cc2c2cc(CC(=O)O)ccc21 | 3.71 ± 0.098
OCC1(CCOc2ccccc2)CCN(CCCn2cccn2)CC1 | -3.68 ± 2.7
CC1(C)S[C@@H]2[C@H](NC(=O)C(C(=O)O)c3ccccc3)C(=O)N2[C@H]1C(=O)O (stereo not given in full) | -4.22 ± 1.9
CC(=O)[C@@]1(O)CC[C@H]2[C@@H]3C[C@H](C)C4=CC(=O)CC[C@]4(C)[C@H]3CC[C@@]21C | -15.7 ± 2.4
CC(C)=CCC(C)(C)C=NNC(N)=O | -1.56 ± 2.4
Cc1ccc2nc(NC3=NC(CC(=O)O)C(=O)N3)nc(C)c2c1 (stereo not given) | -4.76 ± 0.3
COc1ccc2[nH]c3c(c2c1)CCn1c-3nc2ccccc2c1=O | 32.3 ± 4.5
COc1cc2c(cc1OC)C(C)=NC1(CCCCC1)C2 | -5.39 ± 1.2
COc1cc2c3c(c1)C1(C(=O)N3C(C)(C)C=C2C)C(C#N)=C(N)Oc2cc(C)oc(=O)c21 (stereo not given) | 4.59 ± 4.2
COc1ccc(C(C)N2CC34C=CC(O3)C(C(=O)OCC(C)C)C4C2=O)cc1 (stereo not given) | -1.13 ± 5.3
